Source: PubChem BioAssay AID1508624 (National Center for Advancing Translational Sciences (NCATS), 2021)
Screen size: about 48,000 compounds; about 120 (0.25%) were called active. Inconclusive results (about 4%) are left out. The call rests on the fitted dose curve; in most records, active means well fitted activation curve with a large enough effect; inconclusive means small, poorly fitted or top-dose-only effect, or another doubt; inactive means no such curve, though single readings can be large or run the other way. This is a selection; strong and weak results do not stand in their true shares. Where no call is shown, the source filed none.

Test: Primary qHTS for Identification of Small Molecule Activators of Huntingtin-Antisense Promoter Activity; further: nearly all actives have a fitted effect of over 55% in size
Settings: HEK293 HTT-AS promoter firefly luciferase reporter, 24 h; activity change, positive = activation: at 57.5 µM (top of the series), percent change from vehicle, -100% = no light
How it was run: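 Firefly luciferase signal from promoter-reporter HEK293 cells was scaled between vehicle (0%) and zero RLU (-100%). Compounds were tested at final concentrations of up to 57.5 uM over 24 h at 37 degrees C. PTC124 at 50 uM final served as control inhibitor.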

Compound	activity change, positive = activation
Cc1ccc(C)c(N2CCN(C(=O)c3cc4c(=O)n(Cc5ccco5)ccc4nc3C)CC2)c1	-25.3%
Cc1cc(NC(=O)CCNS(=O)(=O)c2ccc3c(c2)CCCC(=O)N3)ccc1Br	inactive: -16.5%
Cc1ccc(CNC(=O)C2CCCCN2S(=O)(=O)c2ccc(F)cc2)cc1 (configuration not stated)	-35%
Cc1ccc(NC(=O)CSc2nc(-c3ccc(C(C)(C)C)cc3)nc3cc(=O)[nH]n23)cc1C	-16.1%
C[C@@H](CN(C)C)CN1c2ccccc2Sc2ccccc21	inactive: -21.4%
O=C(NCc1ccccc1Cl)c1cnc2sc(N3CCOCC3)nn2c1=O	-4.08%
COc1ccc(-c2cc(C(=O)Nc3ccn(Cc4ccc(C)cc4)n3)no2)cc1OC	-2.67%
CCS(=O)(=O)N1CCC(n2c(C)nc3cccnc32)CC1	0.484%
COc1cc2oc(=O)c(CC(=O)N3CCCCC3)c(C)c2cc1OC	-11%
O=C(NCCSCc1c(F)cccc1Cl)C1CCN(S(=O)(=O)Cc2ccccc2)CC1	-10.2%
COc1ccc(OC)c(NC(=O)CSc2nc(-c3ccccc3C)nc3cc(=O)[nH]n23)c1	-1.16%
CS(=O)(=O)N1CCC(n2c(C(F)(F)F)nc3cccnc32)CC1	3.91%
CC1(C)CCC(CN2CCN(c3ccc(C(=O)NS(=O)(=O)c4ccc(NCC5CCOCC5)c([N+](=O)[O-])c4)c(Oc4cnc5[nH]ccc5c4)c3)CC2)=C(c2ccc(Cl)cc2)C1	inactive: -5.94%
Cc1ccc(NC(=O)c2c(C(=O)Nc3ccccc3)sc3nc(C)cc(=O)n23)c(C)c1	-27.1%
O=S(=O)(c1ccc(F)cc1)N1CCC(n2c(C(F)(F)F)nc3cccnc32)CC1	-25.4%
Cc1ccc(C(=O)N2CCC(N3CCN(Cc4ccc(F)cc4)C(=O)C3=O)CC2)cc1	-3.42%
CCN1CCN(Cc2c(O)ccc3oc(C)c(C(=O)Nc4ccc(C)cc4C)c23)CC1	-3.33%
CCCOc1ccc(NC(=O)CC2C(=O)N(c3ccc(Cl)cc3)C(=O)N2CCc2ccncc2)cc1 (configuration not stated)	18.1%
CCC1CCCCN1CCCNC(=O)c1ccc2c(c1)N(Cc1ccc(Cl)cc1)C(=O)c1ccccc1S2(=O)=O (configuration not stated)	inactive: -14.2%
CCCOc1ccc(C2C(=O)N(C3CCC(C)CC3)CC(=O)N2CCC2=CCCCC2)cc1OC (configuration not stated)	-7.74%
COc1ccc(OC)c(-c2cc(C(=O)NC(C)c3ccccc3)no2)c1 (configuration not stated)	-16.6%
COc1ccc(NC(=O)Nc2sc3nc4n(c(=O)c3c2C)CCC(C)CC4)cc1OC (configuration not stated)	-27.8%
COc1ccc(C2=CC(c3ccccc3F)n3ncc(C(=O)Nc4ccc(C)cc4)c3N2)cc1 (configuration not stated)	inactive: 15.2%
CCCc1cc(C(=O)Nc2c(C)nn(Cc3ccc(C)cc3)c2C)no1	-30.8%

Compound	activity change, positive = activation
CCN(CC)S(=O)(=O)c1cc(-c2nnc(Nc3ccc(OC)c(C(N)=O)c3)c3ccccc23)ccc1C	-40.3%
Cc1ccc(C)c(NC(=O)c2ccc3c(c2)CCN3S(C)(=O)=O)c1	inactive: -3.28%
CCOC(=O)c1ccc(N2CCN(c3cccc(Cl)c3)CC2)c(NC(=O)Nc2ccc(OC)cc2OC)c1	-4.33%
O=C(CSc1nc2ccccc2nc1Cc1ccc(F)cc1)Nc1ccc2c(c1)OCO2	-1.25%
Cc1cc(=O)n2c(C(=O)Nc3ccc(C)c(Cl)c3)c(C(=O)Nc3ccccc3)sc2n1	-8.45%
Cn1c(=O)n(C)c2cc(N3CCCCC3)c(NC(=O)c3ccc(Cl)cc3)cc21	-2.14%
COC(=O)c1cc2oc3ccccc3c2n1Cc1nc(-c2cccc(Cl)c2)oc1C	4.32%
Cc1nn(CC(=O)NC2CCCCC2)c(=O)c2cc3cc(F)ccc3n12	-10%
Cc1cc(C)c(Cn2c(CCNC(=O)c3ccco3)nc3ccccc32)c(C)c1	-27%
Oc1ccccc1-c1nc(/C=C/c2ccccc2)nn1-c1ccccc1	22.2%
CC1CCN(c2nn3c(=O)c(C(=O)NCCc4ccc(Cl)cc4)cnc3s2)CC1	-4.25%
Cc1ccc(-n2ccnc(NCCc3ccccc3)c2=O)cc1C	inactive: 7.04%
COc1ccc(OC)c(-c2cc(C(=O)NCc3ccc(Cl)cc3)no2)c1	-13%
Cn1c(=O)c2c(-c3ccccc3)n3c(c2n(C)c1=O)C(c1cccc([N+](=O)[O-])c1)Nc1ccccc1-3 (configuration not stated)	-8.55%
CCN(C(=O)Cn1cnc2c1c(=O)n(C)c(=O)n2C)c1ccccc1C	0.0853%
CCc1ccc(S(=O)(=O)Nc2ccc3oc(C)c(C(=O)OCCOC)c3c2)cc1	-23.2%
COc1ccc(CNC(=O)C2CCN(S(=O)(=O)Cc3ccccc3)CC2)cc1	-0.724%
CC(=O)c1ccc(S(=O)(=O)Nc2cccc(-c3ccc(N4CCCC4)nn3)c2)cc1	0.255%
Cc1nn(-c2ccc(N3CCCCC3)nn2)c(C)c1CCC(=O)Nc1cccc(F)c1	17.6%
CN1CCN(c2cc(C(=O)Nc3ccc4c(c3)-c3c(c(C(N)=O)nn3-c3ccc(F)cc3)CC4)c(Cl)cn2)CC1	inactive: -6.76%
Cc1cc(C)c(S(=O)(=O)Nc2ccc(-c3ccc(N4CCCCC4)nn3)cc2)cc1C	8.83%
O=C(Nc1ccc(F)cc1)c1ccc2c(c1)NC(=O)c1ccccc1S2	-46.8%
Nc1nonc1-c1nc2ccccc2n1CC(=O)Nc1cccc(Cl)c1Cl	-26.8%
